{"source": "PubChem BioAssay AID1508642", "about": "(National Center for Advancing Translational Sciences (NCATS), 2021)", "note": "Among all 43,000 compounds or so, about 200 (0.47%) were called active. This list was built around the results that the source calls inconclusive (neither active nor inactive); the mix of calls is not that of the screen. Calls follow the shape of the dose curve; as a rule, active = well fitted cell-killing curve with a large enough effect; inconclusive = small, poorly fitted or top-dose-only effect, or effect the other way; inactive = flat fitted curve, though single readings scatter. Potencies beside an inconclusive call are fits to weak or partial responses and may not hold up. % is scaled to controls: 0 for no effect and ±100 for the full control effect; potency is read from the fitted curve at half-maximal effect; tags tell the direction and shape of the fitted curve.", "data": [{"assay": "Cell viability qHTS assay in S16 Pmp22-F2sN cells; also: nearly all actives have a fitted effect of over 65% in size", "conditions": "S16 Pmp22-F2sN Schwann cells (luciferase reporters placed in the Pmp22 gene) viability, CellTiter-Glo, 24 h; activity change, negative = cytotoxicity: at 57.5 µM (top of the series)", "procedure,_shortened": "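Rat S16 Schwann reporter line, 24 h treatment with library compounds delivered at 23 nL per well. Cell viability by CellTiter-Glo luminescence.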", "values": [{"smiles": "CCc1cccc(NC(=O)C2CCC(CNS(=O)(=O)c3ccc4c(c3)CCCC(=O)N4)CC2)c1", "note": "(centres undefined)", "Potency": "inconclusive: 25.1 µM [cytotoxic, single point]"}, {"smiles": "Cc1cncn1CCc1nc2c3ccccc3nc(SCC(=O)Nc3ccc(F)cc3)n2n1", "activity change, negative = cytotoxicity": "inactive: 4.98%"}, {"smiles": "COc1cccc(NC(CNS(=O)(=O)c2ccc(Cl)cc2)c2ccccc2)c1", "note": "(centres undefined)", "Potency": "inconclusive: 39.8 µM [rising, single point]"}, {"smiles": "CC1CCCN(S(=O)(=O)c2ccc(N3CCCCS3(=O)=O)cc2)C1", "note": "(centres undefined)", "activity change, negative = cytotoxicity": "inactive: -3.6%"}, {"smiles": "Cc1ccc(NS(=O)(=O)c2ccc3[nH]c4c(c3c2)CCCCCC4)cc1", "Potency": "inconclusive: 39.8 µM [cytotoxic, single point]"}, {"smiles": "CCC(=O)N1CCc2cc(CNS(=O)(=O)c3ccc(Br)s3)ccc21", "activity change, negative = cytotoxicity": "inactive: -3.99%"}, {"smiles": "CCN1CCN(C(c2ccccc2F)c2c(O)cc(C)n(CCOC)c2=O)CC1", "note": "(centres undefined)", "Potency": "inconclusive: 15.8 µM [cytotoxic, partial curve, poor fit]"}, {"smiles": "Cc1c(C(=O)N(Cc2cccc(F)c2)C2CCS(=O)(=O)C2)oc2cc(Br)ccc12", "note": "(centres undefined)", "Potency": "inconclusive: 35.5 µM [cytotoxic, partial curve, poor fit]"}, {"smiles": "CCc1ccc(N2C(=O)CSC23C(=O)N(Cc2cccc(OC)c2)c2ccccc23)cc1", "note": "(centres undefined)", "Potency": "inconclusive: 4.47 µM [rising, single point]"}, {"smiles": "CC(C)c1ccc(NC(=O)c2ccc(Cn3nc(N4CCN(c5ccccc5)CC4)ccc3=O)o2)cc1", "Potency": "inconclusive: 12.6 µM [cytotoxic, partial curve, poor fit]"}, {"smiles": "O=C(Cn1ncn2nc(-c3cccs3)cc2c1=O)NCc1ccccc1Cl", "Potency": "inconclusive: 31.6 µM [cytotoxic, partial curve, poor fit]"}, {"smiles": "COc1ccc(-c2cc(C(F)(F)F)nc(SCCC(=O)Nc3ccccc3F)n2)cc1", "activity change, negative = cytotoxicity": "inactive: -4.34%"}, {"smiles": "Cc1c(NC(=O)c2cc(-c3ccc(F)cc3)on2)c(=O)n(-c2ccccc2)n1C", "Potency": "inconclusive: 5.62 µM [rising, full curve, poor fit]"}, {"smiles": "COc1ccc(-c2cc(C(F)(F)F)nc(S(C)(=O)=O)n2)cc1", "Potency": "inconclusive: 39.8 µM [cytotoxic, single point]"}, {"smiles": "CCOC(=O)c1sc2ccccc2c1S(=O)(=O)Nc1ccc(CC)cc1", "Potency": "inconclusive: 35.5 µM [cytotoxic, single point]"}, {"smiles": "COc1ccc(-n2nc(C(=O)N3CCCC(C)C3)c3c4ccccc4n(C)c3c2=O)cc1", "note": "(centres undefined)", "Potency": "inconclusive: 39.8 µM [cytotoxic, partial curve, poor fit]"}, {"smiles": "O=C1N(Cc2ccccc2)c2ccc(Cl)cc2C1(O)c1c[nH]c2ccccc12", "note": "(centres undefined)", "Potency": "inconclusive: 39.8 µM [cytotoxic, single point]"}, {"smiles": "Cc1cc(C)cc(NC(=O)Cn2cc(S(=O)(=O)NC(C)(C)C)c(S(=O)(=O)NC(C)(C)C)c2)c1", "Potency": "inconclusive: 25.1 µM [cytotoxic, single point]"}, {"smiles": "O=C(COCc1cc(-c2ccc(F)cc2)on1)Nc1cccc(Cl)c1Cl", "Potency": "inconclusive: 0.0447 µM [rising, full curve, poor fit]"}, {"smiles": "CCN(CC)S(=O)(=O)c1ccc2c(c1)nc(CN(C)C(=O)Nc1ccc(Cl)cc1)n2C", "activity change, negative = cytotoxicity": "inactive: -1.34%"}, {"smiles": "CC(C)(C)c1ccc(C(=O)N2CCC(c3nc(-c4ccc(S(=O)(=O)N5CCCC5)cc4)no3)CC2)cc1", "Potency": "inconclusive: 31.6 µM [cytotoxic, single point]"}, {"smiles": "CCCCN(CC)CCCNC(=O)Cn1ncc2c3ccccc3n(Cc3ccccc3F)c2c1=O", "Potency": "inconclusive: 39.8 µM [cytotoxic, single point]"}, {"smiles": "CCCN(CCC)S(=O)(=O)c1ccc2c(c1)N(CC(=O)NCc1ccc(F)cc1Cl)C(=O)CS2", "Potency": "inconclusive: 25.1 µM [cytotoxic, single point]"}, {"smiles": "O=C(c1noc2c1CCCCC2)N1CCN(c2cccc(C(F)(F)F)c2)CC1", "Potency": "inconclusive: 39.8 µM [cytotoxic, single point]"}, {"smiles": "CN1CCN(C(=O)Cn2c(-c3cccs3)cc3cc(Cl)ccc32)CC1", "Potency": "inconclusive: 20 µM [cytotoxic, single point]"}, {"smiles": "CCOc1ccc(N(CC)S(=O)(=O)N2CCCC(C(=O)Nc3cc(Cl)ccc3C)C2)cc1", "note": "(centres undefined)", "Potency": "inconclusive: 39.8 µM [cytotoxic, partial curve, poor fit]"}, {"smiles": "COc1ccc2c(Sc3ccc(Cl)cc3)c(C(=O)NCCCN3CCCCC3)[nH]c2c1", "Potency": "inconclusive: 25.1 µM [cytotoxic, single point]"}, {"smiles": "CC(C)OCCCN1C(=O)c2[nH]nc(-c3ccccc3O)c2C1c1ccc(OCc2ccccc2)cc1", "note": "(centres undefined)", "Potency": "inconclusive: 39.8 µM [cytotoxic, single point]"}, {"smiles": "Cc1oc(-c2ccccc2)nc1CNC(=O)Nc1ccccc1", "Potency": "inconclusive: 0.631 µM [cytotoxic, partial curve, poor fit]"}, {"smiles": "CCCCNC(=O)C(CC)Sc1nnc(-c2ccc(OC)c(OC)c2)c(-c2ccc(OC)c(OC)c2)n1", "note": "(centres undefined)", "Potency": "inconclusive: 20 µM [cytotoxic, single point]"}, {"smiles": "COc1ccccc1-c1nn(CCC(=O)Nc2cccc(C(C)=O)c2)c2nc(C)cc(C)c12", "activity change, negative = cytotoxicity": "inactive: 3.07%"}, {"smiles": "Cc1cc(N2CCC(C)CC2)nc2ccc(NC(=O)CCC(=O)N3CCN(c4cccc(C(F)(F)F)c4)CC3)cc12", "Potency": "inconclusive: 14.1 µM [cytotoxic, partial curve, poor fit]"}, {"smiles": "CCc1ccccc1Nc1nn2c(=O)c3ccc(C(=O)Nc4cc(C)cc(C)c4)cc3nc2s1", "activity change, negative = cytotoxicity": "inactive: 16%"}, {"smiles": "Cc1cccc(-n2ncc(C(=O)N3CCC(C)CC3)c2C2CCN(C(=O)OC(C)(C)C)CC2)c1", "activity change, negative = cytotoxicity": "inactive: -0.159%"}, {"smiles": "CCn1c(CN2CCC(C)CC2)nc2cc(NC(=O)COc3ccc([N+](=O)[O-])cc3)ccc21", "Potency": "inconclusive: 39.8 µM [cytotoxic, partial curve, poor fit]"}, {"smiles": "CC(C)c1ccc(NC(=O)c2cccn2-c2nnc(N3CCCCC3)s2)cc1", "Potency": "inconclusive: 39.8 µM [cytotoxic, single point]"}, {"smiles": "CCOc1cccc2cc(-c3nc4sc5c(c4c(=O)[nH]3)CCC(C)C5)c(=O)oc12", "note": "(centres undefined)", "activity change, negative = cytotoxicity": "inactive: 1.68%"}, {"smiles": "Cc1ccc(NC(=O)CC2Nc3cccc4cccc(c34)NC2=O)cc1", "note": "(centres undefined)", "Potency": "inconclusive: 39.8 µM [cytotoxic, single point]"}, {"smiles": "COc1ccc(N(Cc2ccccc2)C(=O)c2nc(SC)ncc2Cl)cc1", "Potency": "inconclusive: 12.6 µM [cytotoxic, partial curve, poor fit]"}, {"smiles": "COc1ccc(NC(=O)Nc2nnc(N(C)C3CCCCC3)s2)c(OC)c1", "Potency": "inconclusive: 0.398 µM [rising, full curve]"}, {"smiles": "Cc1ccc(C)c(N2CCN(C(=O)c3c4c(nc5ccccc35)C(=O)N(C3CCCCC3)C4)CC2)c1", "Potency": "inconclusive: 15.8 µM [cytotoxic, partial curve, poor fit]"}, {"smiles": "CCCOc1cccc(C(=O)Nc2ccc(-c3nc4ccccc4o3)cc2)c1", "Potency": "inconclusive: 25.1 µM [cytotoxic, single point]"}, {"smiles": "Cn1c(C(=O)NCc2cccc(F)c2)cc2cc(S(=O)(=O)N3CCCCC3)ccc21", "Potency": "inconclusive: 22.4 µM [cytotoxic, single point]"}, {"smiles": "COc1ccc(-c2onc(C)c2C)cc1S(=O)(=O)N1CCC(C)CC1", "Potency": "inconclusive: 31.6 µM [cytotoxic, single point]"}, {"smiles": "CC(=O)c1cc(-c2ccccc2)n(CCC(=O)Nc2cc(C)cc(C)c2)c1C", "Potency": "inconclusive: 28.2 µM [cytotoxic, single point]"}, {"smiles": "COc1ccccc1CCNC(=O)c1cccn1-c1nnc(N2CCCCC2)s1", "Potency": "inconclusive: 31.6 µM [cytotoxic, partial curve, poor fit]"}, {"smiles": "CCN1CCN(C(=O)c2ccc3c(c2)N(Cc2cc(C)ccc2C)C(=O)c2ccccc2S3=O)CC1", "note": "(centres undefined)", "Potency": "inconclusive: 12.6 µM [rising, partial curve, poor fit]"}, {"smiles": "CCOC(=O)c1c(C)[nH]c(C)c1S(=O)(=O)N(C)CC(=O)N1CCN(c2ccccc2OC)CC1", "Potency": "inconclusive: 39.8 µM [cytotoxic, single point]"}, {"smiles": "CCN(CC)CCCNC(=O)Cn1c(-c2cccs2)cc2cc(Cl)ccc21", "Potency": "inconclusive: 39.8 µM [cytotoxic, single point]"}, {"smiles": "CCCCN(CCCC)S(=O)(=O)c1ccc2oc(C(=O)NCc3ccccc3)c(C)c2c1", "Potency": "inconclusive: 4.47 µM [cytotoxic, partial curve, poor fit]"}, {"smiles": "CCOC(=O)c1c(C)oc2c(Cl)cc(NS(=O)(=O)c3ccc(Cl)c(C)c3)cc12", "activity change, negative = cytotoxicity": "inactive: 6.6%"}, {"smiles": "CCOC(=O)c1c(C)[nH]c(C)c1S(=O)(=O)N1CCCC(C(=O)N2CCN(c3cc(C)ccc3C)CC2)C1", "note": "(centres undefined)", "Potency": "inconclusive: 14.1 µM [cytotoxic, partial curve]"}, {"smiles": "CCc1cccc(C)c1NC(=O)c1cnn(-c2ccc(F)cc2)c1-n1cccc1", "Potency": "inconclusive: 0.0282 µM [cytotoxic, full curve, poor fit]"}, {"smiles": "O=C1Nc2ccccc2Oc2cc(Oc3ccc(Cl)cc3)ccc21", "Potency": "inconclusive: 28.2 µM [cytotoxic, partial curve, poor fit]"}, {"smiles": "Cc1cc(NC(=O)C2CCCN(S(=O)(=O)c3cccc4nonc34)C2)ccc1Br", "note": "(centres undefined)", "Potency": "inconclusive: 39.8 µM [cytotoxic, single point]"}, {"smiles": "CCc1ccc2nc(N3CCN(C(=O)c4ccco4)CC3)sc2c1", "activity change, negative = cytotoxicity": "inactive: -0.379%"}, {"smiles": "CCc1ccc(CN2CCc3nc(Nc4ccc5c(c4)OCCO5)ncc3C2)cc1", "activity change, negative = cytotoxicity": "inactive: -1.18%"}, {"smiles": "COc1ccc(Nc2nc(Nc3ccc(OC)cc3OC)nc(N3CCOCC3)n2)c(OC)c1", "activity change, negative = cytotoxicity": "inactive: -27.1%"}, {"smiles": "Cc1ccc(S(=O)(=O)N2CCCc3cc(NS(=O)(=O)c4ccc(C)c(C)c4)ccc32)cc1", "Potency": "inconclusive: 39.8 µM [cytotoxic, single point]"}]}]}
